{
  "source": "patent US20250248397A1",
  "about": "“CHITOSAN ENCAPSULATION OF ABSOLUTE (ESSENTIAL) ROSEMARY, PEPPERMINT, AND COTTONSEED OILS” (GroPro Corporation, priority 2024, published 2025)",
  "key": {"[1]": {"test_system": "root-knot nematodes (Meloidogyne spp.)", "assay": "Nematocidal activity on hatched root-knot nematodes in Petri dish", "format": "in vivo", "method": "In some embodiments, the nematodes used in the experiments were mainly Meloidogyne spp. The below disclosed experiment results are related to the evaluation of nematocidal activity of naturally derived material.\nThe tomato roots infected with root-knot nematodes were washed with running water and were then cut to a size of about 1 cm, after which 50 g of the cut roots were placed in a 500 ml round-bottom flask containing 200 ml of 0.5% sodium hypochloride (NaOCl), stopped with a rubber stopper, and shaken vigorously for 3 min to sterilize the roots and at the same time burst the egg bag. Thereafter, the solution was passed through a sieve in which 200 mesh was superimposed on 500 mesh, and washed with distilled water, so the eggs of the root-knot nematodes from which the NaOCl solution was removed were recovered.\nNext, the eggs of the root-knot nematodes thus recovered were surface-sterilized with 0.5% NaOCl for 10 min, washed thoroughly with sterile distilled water, placed in a phosphate buffer (1%) containing sterilized normal saline, and hatched in an incubator at 25° C.\nThereafter, each mixed solution was diluted to 2000 ppm, 2 to 3 ml thereof was poured into a Petri dish, after which 15 hatched root-knot nematodes were placed in the Petri dish, and nematocidal activity was measured and the results thereof are shown in Table 1 below.\nThe number of root-knot nematodes used for the experiment on the number of killed root-knot nematodes was 15 at each dilution factor."}, "tomato seedlings": {"test_system": "tomato seedlings", "assay": "Phytotoxicity of geraniol, drenching treatment of potted tomato seedlings", "format": "in vivo", "conditions": "for Extent of phytotoxicity (0-5) / Phytotoxicity symptom: Tomato, 50 ml drench, 1 week; for phytotoxicity symptoms: tomato seedlings", "excerpt": "Sterilized soil was uniformly mixed, 300 g thereof was then placed in each pot, and tomato seedlings not infected with root-knot nematodes were transplanted thereto."}, "[2]": {"test_system": "(Ae. aegypti), Culex species mosquitoes, Anopheles species mosquitoes", "assay": "Mosquito and midge adult activity", "format": "in vivo", "conditions": "used at 500 to 8,000 ppm"}, "[3]": {"conditions": "cited from earlier work"}, "Black Sigatoka": {"test_system": "Black Sigatoka", "assay": "Field trials in bananas against black Sigatoka", "format": "in vivo, Mycosphaerella fijiensis", "conditions": "applied as tank mixes with tea tree oil", "method": "Tea tree oil was used in disclosed experiments and trials as an 53mulsifiable concentrated formulation. For field trials in bananas, tea tree oil was applied similarly to conventional synthetic fungicides, with mineral oil, surfactants, and/or just water. The following fungicides, registered for use against black sigatoka in bananas, were tested for comparison: azoxystrobin (Bankit 25 SC), trifloxystrobin (Flint, Tega 50 WG), difenoconazole (Score, Sico 25 EC), mancozeb (43 SC Duwest 80 WP), flutriafol (Impact, 125 SC) and tridemorph (Calixin 86 OL)."}, "[4]": {"conditions": "2000 ppm dilution, 1 day, 15 nematodes"}, "[5]": {"conditions": "2000 ppm dilution, 2 days, 15 nematodes"}, "[6]": {"conditions": "2000 ppm dilution, 3 days, 15 nematodes"}},
  "data": [
    {"molecule": "C/C=C(\\C)C(=O)O[C@H]1C[C@@H](OC(C)=O)[C@@]2(C(=O)OC)CO[C@H]3[C@@H](O)[C@@](C)([C@]45O[C@@]4(C)[C@H]4C[C@@H]5O[C@@H]5OC=C[C@@]54O)[C@H]4[C@]1(CO[C@]4(O)C(=O)OC)[C@@H]32", "note": "[Azadirachtin, azadirachtin]", "values": [
      {"measurement": "number of killed root-knot nematodes", "setting": "[1]; [4]", "result": 7},
      {"measurement": "number of killed root-knot nematodes", "setting": "[1]; [5]", "result": 8},
      {"measurement": "number of killed root-knot nematodes", "setting": "[1]; [6]", "result": 10}
    ]},
    {"molecule": "CC(C)=CCC/C(C)=C/CO", "note": "[Geraniol, 3,7-dimethyl-2,6-octadien-1-ol]", "values": [
      {"measurement": "number of killed root-knot nematodes", "setting": "[1]; Geraniol 2,000 ppm, 1 day, 15 nematodes", "result": 15},
      {"measurement": "nematocidal control and plant phytotoxicity", "setting": "[1]; geraniol used at 500 to 4,000 ppm", "result": "superior nematocidal control was demonstrated without plant phytotoxicity"},
      {"measurement": "Extent of phytotoxicity (0-5)", "setting": "tomato seedlings; Geraniol 100 ppm", "result": 0},
      {"measurement": "Phytotoxicity symptom", "setting": "tomato seedlings; Geraniol 100 ppm", "result": "No"},
      {"measurement": "Extent of phytotoxicity (0-5)", "setting": "tomato seedlings; Geraniol 200 ppm", "result": 0},
      {"measurement": "Phytotoxicity symptom", "setting": "tomato seedlings; Geraniol 200 ppm", "result": "No"},
      {"measurement": "Extent of phytotoxicity (0-5)", "setting": "tomato seedlings; Geraniol 330 ppm", "result": 0},
      {"measurement": "Phytotoxicity symptom", "setting": "tomato seedlings; Geraniol 330 ppm", "result": "No"},
      {"measurement": "Extent of phytotoxicity (0-5)", "setting": "tomato seedlings; Geraniol 500 ppm", "result": 0},
      {"measurement": "Phytotoxicity symptom", "setting": "tomato seedlings; Geraniol 500 ppm", "result": "No"},
      {"measurement": "Extent of phytotoxicity (0-5)", "setting": "tomato seedlings; Geraniol 1,000 ppm", "result": 0},
      {"measurement": "Phytotoxicity symptom", "setting": "tomato seedlings; Geraniol 1,000 ppm", "result": "No"},
      {"measurement": "Extent of phytotoxicity (0-5)", "setting": "tomato seedlings; Geraniol 2,000 ppm", "result": 0},
      {"measurement": "Phytotoxicity symptom", "setting": "tomato seedlings; Geraniol 2,000 ppm", "result": "No"},
      {"measurement": "Extent of phytotoxicity (0-5)", "setting": "tomato seedlings; Geraniol 3,000 ppm", "result": 0},
      {"measurement": "Phytotoxicity symptom", "setting": "tomato seedlings; Geraniol 3,000 ppm", "result": "No"},
      {"measurement": "Extent of phytotoxicity (0-5)", "setting": "tomato seedlings; Geraniol 4,000 ppm", "result": 5},
      {"measurement": "Phytotoxicity symptom", "setting": "tomato seedlings; Geraniol 4,000 ppm", "result": "Withered"},
      {"measurement": "Extent of phytotoxicity (0-5)", "setting": "tomato seedlings; Geraniol 5,000 ppm", "result": 5},
      {"measurement": "Phytotoxicity symptom", "setting": "tomato seedlings; Geraniol 5,000 ppm", "result": "Withered"},
      {"measurement": "Extent of phytotoxicity (0-5)", "setting": "tomato seedlings; Geraniol 10,000 ppm", "result": 5},
      {"measurement": "Phytotoxicity symptom", "setting": "tomato seedlings; Geraniol 10,000 ppm", "result": "Withered"},
      {"measurement": "Extent of phytotoxicity (0-5)", "setting": "tomato seedlings; Geraniol 20,000 ppm", "result": 5},
      {"measurement": "Phytotoxicity symptom", "setting": "tomato seedlings; Geraniol 20,000 ppm", "result": "Withered"},
      {"measurement": "phytotoxicity symptoms", "setting": "tomato seedlings; at 4000 ppm or more", "result": "all tomato seedlings collapsed and withered"},
      {"measurement": "phytotoxicity symptoms", "setting": "tomato seedlings; concentration range of 100 ppm to 3,000 ppm", "result": "no particular phytotoxicity symptoms"},
      {"measurement": "mosquito and midge control, plant phytotoxicity, water toxicology", "setting": "[2]", "result": "superior mosquito and midge control was demonstrated without plant phytotoxicity or water toxicology"},
      {"measurement": "solubility in water", "setting": "[3]", "result": "insoluble in water"}
    ]},
    {"molecule": "CC1COC(Cn2cncn2)(c2ccc(Oc3ccc(Cl)cc3)cc2Cl)O1", "note": "(stereo not shown) [difenoconazole]", "values": [
      {"measurement": "control of Black Sigatoka", "setting": "Black Sigatoka", "result": "effectively controlled"}
    ]},
    {"molecule": "CON=C(C(=O)OC)c1ccccc1CON=C(C)c1cccc(C(F)(F)F)c1", "note": "[trifloxystrobin]", "values": [
      {"measurement": "control of Black Sigatoka", "setting": "Black Sigatoka", "result": "effectively controlled"}
    ]},
    {"molecule": "pyrethrin", "values": [
      {"measurement": "Nematocidal efficiency (%)", "setting": "[1]; 2000 ppm dilution, 15 nematodes, up to 3 days", "result": 73.3, "unit": "%"},
      {"measurement": "number of killed root-knot nematodes", "setting": "[1]; [4]", "result": 5},
      {"measurement": "number of killed root-knot nematodes", "setting": "[1]; [5]", "result": 6},
      {"measurement": "number of killed root-knot nematodes", "setting": "[1]; [6]", "result": 11}
    ]}
  ]
}
